Assay results taken from ChEMBL document CHEMBL5518249, “Structure-Guided Discovery and Preclinical Assessment of Novel (Thiophen-3-yl)aminopyrimidine Derivatives as Potent ERK1/2 Inhibitors” (J Med Chem, 2024).

Assays:
MDA-MB-231 = assay: cells; conditions: Homo sapiens, MDA-MB-231, 24 h
RKO = assay: cells; conditions: Homo sapiens, 24 h
in vivo [1] = conditions: Sprague-Dawley, rat, iv, 1 mg/kg
in vivo [2] = conditions: Sprague-Dawley, rat, iv, 1 mg/kg; remark: listed apart in the source
in vivo [3] = conditions: Sprague-Dawley, rat, po, 10 mg/kg
in vivo [4] = conditions: Sprague-Dawley, rat, iv, 1 mg/kg; remark: listed apart in the source
in vivo [5] = conditions: Sprague-Dawley, rat, po, 10 mg/kg; remark: listed apart in the source
in vivo [6] = conditions: Sprague-Dawley, rat, po, 10 mg/kg; remark: listed apart in the source
in vivo [7] = conditions: Sprague-Dawley, rat, po, 10 mg/kg; remark: listed apart in the source
in vivo [8] = conditions: Sprague-Dawley, rat, iv, 1 mg/kg; remark: listed apart in the source
in vivo [9] = conditions: Sprague-Dawley, rat, iv, 1 mg/kg; remark: listed apart in the source
in vivo [10] = conditions: Sprague-Dawley, rat, po, 10 mg/kg; remark: listed apart in the source
in vivo [11] = conditions: Sprague-Dawley, rat, iv, 1 mg/kg; remark: listed apart in the source
in vivo [12] = conditions: Sprague-Dawley, rat, iv, 1 mg/kg; remark: listed apart in the source
in vivo [13] = conditions: Sprague-Dawley, rat, po, 10 mg/kg; remark: listed apart in the source
in vivo [14] = conditions: Sprague-Dawley, rat, iv, 1 mg/kg; remark: listed apart in the source
in vivo [15] = conditions: Sprague-Dawley, rat, po, 10 mg/kg; remark: listed apart in the source
in vivo [16] = conditions: Sprague-Dawley, rat, iv, 1 mg/kg; remark: listed apart in the source

Compound: Cn1nccc1Nc1ncc(Cl)c(-c2csc(C(=O)NCc3ccc(OC(F)(F)F)cc3)c2)n1
- IC50 (MDA-MB-231): > 50 µM
- IC50 (RKO): > 50 µM

Compound: Cc1cc(Nc2ncc(Cl)c(-c3csc(C(=O)N[C@@H](CO)c4cccc(Cl)c4)c3)n2)ccn1
- IC50 (MDA-MB-231): 15.3 µM
- IC50 (RKO): 11.3 µM

Compound: Cn1nccc1Nc1ncc(Cl)c(-c2csc(C(=O)NCc3ccc(F)c(F)c3)c2)n1
- IC50 (MDA-MB-231): 17.3 µM
- IC50 (RKO): 19.5 µM

Compound: Cn1nccc1Nc1ncc(Cl)c(-c2csc(C(=O)NCc3ccc(F)c(Cl)c3)c2)n1
- IC50 (MDA-MB-231): 6.23 µM
- IC50 (RKO): 5.89 µM

Compound: Cn1nccc1Nc1ncc(Cl)c(-c2csc(C(=O)NCc3cccc(Cl)c3)c2)n1
- IC50 (MDA-MB-231): 18.8 µM
- IC50 (RKO): 16.3 µM

Compound: Cc1cc(Nc2ncc(Cl)c(-c3csc(C(=O)NCc4ccc(F)c(Cl)c4)c3)n2)n(C)n1
- IC50 (MDA-MB-231): > 50 µM
- IC50 (RKO): > 50 µM

Compound: Cc1cc(Nc2ncc(Cl)c(-c3csc(C(=O)NCc4ccc(F)c(Cl)c4)c3)n2)ccn1
- IC50 (MDA-MB-231): 3.16 µM
- IC50 (RKO): 3.54 µM

Compound: Cn1nccc1Nc1ncc(Cl)c(-c2csc(C(=O)NCc3ccc(Br)cc3)c2)n1
- IC50 (MDA-MB-231): > 50 µM
- IC50 (RKO): > 50 µM

Compound: Cn1nccc1Nc1ncc(Cl)c(-c2csc(C(=O)NCc3cccc(OC(F)(F)F)c3)c2)n1
- IC50 (MDA-MB-231): > 50 µM
- IC50 (RKO): > 50 µM

Compound: COc1cnc(Nc2ccnn2C)nc1-c1csc(C(=O)NCc2ccc(F)c(Cl)c2)c1
- IC50 (MDA-MB-231): 11.6 µM
- IC50 (RKO): 12.5 µM

Compound: COc1ccc(CNC(=O)c2cc(-c3nc(Nc4ccnn4C)ncc3Cl)cs2)cc1
- IC50 (MDA-MB-231): > 50 µM
- IC50 (RKO): > 50 µM

Compound: Cc1cc(Nc2ncc(Cl)c(-c3csc(C(=O)N[C@H](CO)c4cccc(Cl)c4)c3)n2)ccn1
- IC50 (MDA-MB-231): 7.3 µM
- IC50 (RKO): 5.36 µM

Compound: Cn1nccc1Nc1ncc(Cl)c(-c2csc(C(=O)NCc3ccccc3OC(F)(F)F)c2)n1
- IC50 (MDA-MB-231): 20 µM
- IC50 (RKO): 16 µM

Compound: Cn1nccc1Nc1ncc(F)c(-c2csc(C(=O)NCc3ccc(F)c(Cl)c3)c2)n1
- IC50 (MDA-MB-231): > 50 µM
- IC50 (RKO): 29.6 µM

Compound: Cn1nccc1Nc1ncc(Cl)c(-c2csc(C(=O)Nc3ccc(F)c(Cl)c3)c2)n1
- IC50 (MDA-MB-231): > 50 µM
- IC50 (RKO): > 50 µM

Compound: Cc1cc(Nc2ncc(Cl)c(-c3csc(C(=O)N[C@H](CO)c4ccccc4)c3)n2)ccn1
- Cmax at 24 h (in vivo [1]): 265 ng/mL
- Tmax at 24 h (in vivo [2]): 0.25 h
- AUC(0-t) at 24 h (in vivo [3]): 537 ng·h/mL
- AUC(0-inf) at 24 h (in vivo [4]): 307 ng·h/mL
- bioavailability at 24 h (in vivo [5]): 17.6%
- Cmax at 24 h (in vivo [6]): 120 ng/mL
- Tmax at 24 h (in vivo [7]): 4 h
- half-life at 24 h (in vivo [8]): 0.96 h
- MRT inf at 24 h (in vivo [9]): 0.86 h
- half-life at 24 h (in vivo [10]): 1.79 h
- clearance at 24 h (in vivo [11]): 54.1 mL/min/kg
- Vd at 24 h (in vivo [12]): 2.79 L/kg
- AUC(0-inf) at 24 h (in vivo [13]): 550 ng·h/mL
- AUC(0-t) at 24 h (in vivo [14]): 305 ng·h/mL
- MRT inf at 24 h (in vivo [15]): 4.28 h
- Vd at 24 h (in vivo [16]): 4.52 L/kg

Compound: COc1cc(Nc2ncc(Cl)c(-c3csc(C(=O)NCc4ccc(F)c(Cl)c4)c3)n2)ccn1
- IC50 (MDA-MB-231): 23.6 µM
- IC50 (RKO): 21.1 µM

Compound: Cn1nccc1Nc1ncc(Cl)c(-c2csc(C(=O)NCc3cccc(F)c3)c2)n1
- IC50 (MDA-MB-231): 29.6 µM
- IC50 (RKO): 33.9 µM

Compound: Cn1nccc1Nc1ncc(Cl)c(-c2csc(C(=O)NCc3ccc(Cl)cc3Cl)c2)n1
- IC50 (MDA-MB-231): > 50 µM
- IC50 (RKO): > 50 µM

Compound: Cc1nn(C)cc1Nc1ncc(Cl)c(-c2csc(C(=O)NCc3ccc(F)c(Cl)c3)c2)n1
- IC50 (MDA-MB-231): 20.1 µM
- IC50 (RKO): 18.9 µM

Compound: O=C(NCc1ccc(F)c(Cl)c1)c1cc(-c2nc(NC3CCOCC3)ncc2Cl)cs1
- IC50 (MDA-MB-231): 5.94 µM
- IC50 (RKO): 6.23 µM

Compound: Cn1nccc1Nc1nccc(-c2csc(C(=O)NCc3ccc(F)c(Cl)c3)c2)n1
- IC50 (MDA-MB-231): 22.7 µM
- IC50 (RKO): 20.5 µM
